# Measurements reported in PubChem BioAssay AID1347165 (National Center for Advancing Translational Sciences (NCATS), 2019).
# Among all 220,000 compounds or so, about 5,700 (2.6%) were called active. This list was built around the results that the source calls inconclusive (neither active nor inactive); the mix of calls is not that of the screen. Calls follow the shape of the dose curve; as a rule, active = well fitted inhibition curve with a large enough effect; inconclusive = small, poorly fitted or top-dose-only effect; inactive = no such curve, though single readings can be large or run the other way. A potency beside an inconclusive call is a rough fit, not a confirmed value.
# Target: Lysine-specific demethylase 5B (Homo sapiens) (UniProt Q9UGL1)
# UniProt Q9UGL1, sequence (Q9UGL1 whole entry, looked up): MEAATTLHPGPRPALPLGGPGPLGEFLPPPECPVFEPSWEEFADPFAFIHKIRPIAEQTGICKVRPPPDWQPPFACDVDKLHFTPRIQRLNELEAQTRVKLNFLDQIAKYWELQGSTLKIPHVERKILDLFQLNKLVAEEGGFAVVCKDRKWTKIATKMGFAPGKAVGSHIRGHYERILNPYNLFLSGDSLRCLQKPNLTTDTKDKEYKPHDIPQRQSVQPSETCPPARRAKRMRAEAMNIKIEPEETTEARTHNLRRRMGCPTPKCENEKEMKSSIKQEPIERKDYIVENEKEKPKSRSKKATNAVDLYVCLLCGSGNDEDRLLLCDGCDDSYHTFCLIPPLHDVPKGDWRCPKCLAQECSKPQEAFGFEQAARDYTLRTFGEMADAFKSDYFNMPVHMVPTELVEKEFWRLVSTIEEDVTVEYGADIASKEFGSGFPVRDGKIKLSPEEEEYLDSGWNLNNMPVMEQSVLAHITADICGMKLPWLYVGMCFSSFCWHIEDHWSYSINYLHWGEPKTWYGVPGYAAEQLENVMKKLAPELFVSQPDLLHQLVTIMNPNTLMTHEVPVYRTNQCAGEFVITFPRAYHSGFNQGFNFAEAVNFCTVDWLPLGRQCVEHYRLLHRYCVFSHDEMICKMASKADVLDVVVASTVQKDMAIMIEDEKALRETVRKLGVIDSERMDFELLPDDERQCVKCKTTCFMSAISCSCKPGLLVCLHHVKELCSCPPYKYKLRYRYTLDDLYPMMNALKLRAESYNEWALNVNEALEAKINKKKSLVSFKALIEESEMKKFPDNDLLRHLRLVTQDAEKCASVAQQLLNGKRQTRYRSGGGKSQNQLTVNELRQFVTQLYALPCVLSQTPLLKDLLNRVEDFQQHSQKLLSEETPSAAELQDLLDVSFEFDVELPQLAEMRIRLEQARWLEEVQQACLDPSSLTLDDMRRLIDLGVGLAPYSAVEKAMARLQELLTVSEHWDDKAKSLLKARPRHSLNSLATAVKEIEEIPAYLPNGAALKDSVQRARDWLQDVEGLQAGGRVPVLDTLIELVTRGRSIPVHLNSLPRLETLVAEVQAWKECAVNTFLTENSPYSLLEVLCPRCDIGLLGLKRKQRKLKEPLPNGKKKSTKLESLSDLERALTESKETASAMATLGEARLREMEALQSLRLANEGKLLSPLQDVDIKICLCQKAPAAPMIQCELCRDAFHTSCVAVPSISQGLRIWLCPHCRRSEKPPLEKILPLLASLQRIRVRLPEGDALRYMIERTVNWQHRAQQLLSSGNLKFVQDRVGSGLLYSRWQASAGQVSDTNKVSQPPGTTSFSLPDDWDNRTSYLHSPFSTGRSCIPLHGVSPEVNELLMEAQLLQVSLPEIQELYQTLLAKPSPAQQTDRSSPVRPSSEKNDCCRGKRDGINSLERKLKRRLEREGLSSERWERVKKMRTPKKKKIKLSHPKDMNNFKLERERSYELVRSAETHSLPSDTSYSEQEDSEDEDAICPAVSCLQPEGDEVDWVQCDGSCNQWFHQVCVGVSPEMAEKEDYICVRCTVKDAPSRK
# Assay: Primary screen for KDM5B Histone Demethylases FDH-coupled qHTS; also: nearly all actives have a fitted effect of over 70% in size; as to activity change, negative = inhibition: 0% is about no effect
# Settings: FDH-coupled NADH fluorescence (FDH is formaldehyde dehydrogenase); activity change, negative = inhibition: at 57.7 µM (top of the series) unless noted
# Outline: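 qHTS format, multiple compound concentrations. Buffer 50 mM HEPES pH 7.5/0.01% Tween-20; 200 nM KDM5BΔAP final; 10 min compound preincubation; substrate-mix levels 12.5 µM peptide, 25 µM α-KG, 0.25 mM NAD⁺; 30 min RT; ΔRFU.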
# Potency is read from the fitted curve at half-maximal effect; tags tell the direction and shape of the fitted curve.
Structure (SMILES),Potency,"activity change, negative = inhibition"
CCOc1ccc(C(C)NC(=O)Cc2nc(-c3cccs3)oc2C)cc1OCC (centres undefined),"inconclusive: 20 µM [inhibitor, partial curve, poor fit]",–
CC(C)CN1CCc2nc(N3CCN(c4ncccn4)CC3)ncc2C1,"inconclusive: 39.8 µM [inhibitor, single point]",–
Cn1ccc(NC(=O)C2(C)CCCc3cnc(Nc4ccccc4)nc32)n1 (centres undefined),inactive,–
CN1CCN(Cc2ccc(Nc3cnc4ccc(-n5ccnc5)nn34)cc2)CC1,inactive,–
CC(NC(=O)c1cc(Sc2ccc(F)cc2F)nc2ccccc12)c1ccccc1 (centres undefined),"inconclusive: 28.2 µM [inhibitor, partial curve, poor fit]",–
CC(C(=O)Nc1ccc2[nH]c(=O)[nH]c2c1)N(C)Cc1ccccc1N1CCCCC1 (centres undefined),inactive,–
O=C(COc1ccc(Br)cc1)Nc1ccc2oc(=O)ccc2c1,"inconclusive: 39.8 µM [inhibitor, partial curve, poor fit]",–
COc1cc(Br)c(/C=C(\C#N)c2nc3ccccc3[nH]2)cc1OC,"inconclusive: 25.1 µM [inhibitor, single point]",–
O=C1OC2(CN1CC1CCOCC1)CN(c1ccccc1-c1ccccc1)C2,"inconclusive: 39.8 µM [inhibitor, partial curve, poor fit]",–
CC(C)Cc1ccc(C(C)(N)C(=O)O)cc1 (centres undefined),inactive,–
COCCNC(=O)[C@H]1C[C@H](Oc2ccccc2)CN1C(=O)c1cccc(OC)c1,inactive,–
COc1ccc(NC(=O)c2cc3n(n2)CC(c2ccc(Cl)cc2)OC3)c(OC)c1 (centres undefined),"inconclusive: 39.8 µM [inhibitor, single point]",–
COc1ccc(-c2nc3c(c(=O)[nH]2)CCN(C(=O)Nc2ccc(C)cc2C)C3)cc1,active: 25.1 µM,–
COc1ccccc1CNC(=O)c1noc(-c2ccc3c(c2)OCO3)n1,"inconclusive: 31.6 µM [inhibitor, single point]",–
CCOC(=O)COc1ccc2c(=O)c(Oc3ccccc3OC)coc2c1,"inconclusive: 39.8 µM [inhibitor, single point]",–
Cc1ccc(-c2nc3cc(C(C)C)ccc3o2)cc1NC(=O)c1cccs1,"inconclusive: 39.8 µM [inhibitor, partial curve, poor fit]",–
COc1ccc(Cl)cc1NC(=O)NNC(=O)c1ccccn1,"inconclusive: 20 µM [inhibitor, partial curve, poor fit]",–
CCn1nccc1C(=O)Nc1cccc(-c2nnc3n2CCCC3)c1,inactive,–
Clc1ccccc1N1CCN(Cc2ccc(Br)o2)CC1,"inconclusive: 3.98 µM [inhibitor, full curve, poor fit]",–
Cn1c(-c2ccc3ccccc3n2)[n+](C)c2ccccc21,"inconclusive: 39.8 µM [inhibitor, single point]",–
O=C(C1CCCCC1)N1CCC(N2CC3CC(C2)[C@H]2CCCC(=O)N2C3)CC1 (some centres undefined),"inconclusive: 10 µM [inhibitor, partial curve]",–
Cc1cccc(NC(=O)CSc2nc3ccc(NC(=O)c4ccco4)cc3s2)c1,"inconclusive: 39.8 µM [inhibitor, partial curve, poor fit]",–

Structure (SMILES),Potency,"activity change, negative = inhibition"
COc1cccc(CN2CCc3c(cc(C(=O)Nc4cc(OC)cc(OC)c4)n3C)C2)c1,"inconclusive: 15.8 µM [inhibitor, partial curve, poor fit]",–
CCCCOc1ccc(CNC(=O)C2CCN(c3nnc(-n4cccc4CNc4ccc(C)cc4)s3)CC2)cc1,–,inconclusive: -34.1% [inhibitor]
CCc1ccc(/C=C(/C#N)C(=O)Nc2ccc(N3CCOCC3)cc2)cc1,inactive,–
COCc1ccc(CNC(=O)CC(C)(C)C)cc1,inactive,–
Oc1ccc(N2CCN(CC(O)c3ccccc3)CC2)cc1 (centres undefined),"inconclusive: 28.2 µM [inhibitor, partial curve, poor fit]",–
O=C(O)C1CSC(c2ccc3c(c2)OCO3)N1 (centres undefined),"inconclusive: 20 µM [inhibitor, partial curve, poor fit]",–
N#CCCN(CCC#N)c1ccncc1,inactive,–
COc1cc(C#N)ccc1OCC(=O)c1ccc2ccccc2c1,inactive,–
COC(=O)c1cccc(Nc2c(-c3ccc(O)c(OC)c3)nc3nc[nH]n23)c1,"inconclusive: 1.41 µM [inhibitor, partial curve, poor fit]",–
O=c1c2nc(-c3ccccc3)ccc2ncn1Cc1ccccc1,"inconclusive: 35.5 µM [inhibitor, partial curve, poor fit]",–
CCN(CC)c1nc2ccccc2nc1C(=O)Nc1ccc(F)c(F)c1,inactive,–
O=S1(=O)CCN(Cc2cn(C[C@H]3C[C@@H](NCc4cccnc4)[C@H](O)[C@@H]3O)nn2)CC1,"inconclusive: 28.2 µM [inhibitor, partial curve, poor fit]",–
CCC(C)C(NC(=O)NCc1ccc(C)cc1)C(=O)O (centres undefined),inactive,–
Cc1ccc(C(C)C)c(OC2(c3ccccc3)OC(=O)c3ccccc32)c1 (centres undefined),inactive,–
COCCN1Cc2ccc(NCc3ccccc3)nc2C(C)(C(=O)Nc2ccc(F)cc2)C1 (centres undefined),"inconclusive: 25.1 µM [inhibitor, single point]",–
O=C1CC(c2ccccc2C(F)(F)F)c2c(c3ccccc3[nH]c2=O)O1 (centres undefined),"inconclusive: 15.8 µM [inhibitor, partial curve, poor fit]",–
CN(C)C(CNC(=O)c1cc(=O)[nH]c2ccccc12)c1ccccc1 (centres undefined),"inconclusive: 39.8 µM [inhibitor, single point]",–
O=C(Cc1cccc(F)c1)N1CCCN(c2cc(-c3ccc(Cl)cc3)[nH]n2)CC1,"inconclusive: 14.1 µM [inhibitor, single point]",–
CCN(CC)S(=O)(=O)c1ccc2[nH]c(=O)cc(C(=O)N(C)Cc3ccccc3C)c2c1,inactive,–
COc1ccc(Nc2ccc3nnc(-c4ccc(C)cn4)n3n2)cc1,"inconclusive: 31.6 µM [inhibitor, single point]",–
Cc1cc(C)cc(NC(=O)Cn2ccn(-c3ccc(F)c(F)c3)c(=O)c2=O)c1,inactive,–
NCC1CCN(C(=O)c2cnc(C34CC5CC(CC(C5)C3)C4)[nH]c2=O)C1 (centres undefined),"inconclusive: 20 µM [inhibitor, partial curve, poor fit]",–
